About 14,000 (4.5%) of roughly 310,000 compounds showed an effect of 50% or more. Effects have a minus sign here. This is one part of the list.
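Note: peak tail current of the secondary pulse compared with the same well before compound.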

The test deals with human ether-à-go-go-related gene (hERG) potassium channel (human, UniProt Q12809). Description: primary screen, population patch clamp on CHO cells stably expressing hERG.
Sequence of human ether-à-go-go-related gene (hERG) potassium channel (Q12809 whole entry, looked up): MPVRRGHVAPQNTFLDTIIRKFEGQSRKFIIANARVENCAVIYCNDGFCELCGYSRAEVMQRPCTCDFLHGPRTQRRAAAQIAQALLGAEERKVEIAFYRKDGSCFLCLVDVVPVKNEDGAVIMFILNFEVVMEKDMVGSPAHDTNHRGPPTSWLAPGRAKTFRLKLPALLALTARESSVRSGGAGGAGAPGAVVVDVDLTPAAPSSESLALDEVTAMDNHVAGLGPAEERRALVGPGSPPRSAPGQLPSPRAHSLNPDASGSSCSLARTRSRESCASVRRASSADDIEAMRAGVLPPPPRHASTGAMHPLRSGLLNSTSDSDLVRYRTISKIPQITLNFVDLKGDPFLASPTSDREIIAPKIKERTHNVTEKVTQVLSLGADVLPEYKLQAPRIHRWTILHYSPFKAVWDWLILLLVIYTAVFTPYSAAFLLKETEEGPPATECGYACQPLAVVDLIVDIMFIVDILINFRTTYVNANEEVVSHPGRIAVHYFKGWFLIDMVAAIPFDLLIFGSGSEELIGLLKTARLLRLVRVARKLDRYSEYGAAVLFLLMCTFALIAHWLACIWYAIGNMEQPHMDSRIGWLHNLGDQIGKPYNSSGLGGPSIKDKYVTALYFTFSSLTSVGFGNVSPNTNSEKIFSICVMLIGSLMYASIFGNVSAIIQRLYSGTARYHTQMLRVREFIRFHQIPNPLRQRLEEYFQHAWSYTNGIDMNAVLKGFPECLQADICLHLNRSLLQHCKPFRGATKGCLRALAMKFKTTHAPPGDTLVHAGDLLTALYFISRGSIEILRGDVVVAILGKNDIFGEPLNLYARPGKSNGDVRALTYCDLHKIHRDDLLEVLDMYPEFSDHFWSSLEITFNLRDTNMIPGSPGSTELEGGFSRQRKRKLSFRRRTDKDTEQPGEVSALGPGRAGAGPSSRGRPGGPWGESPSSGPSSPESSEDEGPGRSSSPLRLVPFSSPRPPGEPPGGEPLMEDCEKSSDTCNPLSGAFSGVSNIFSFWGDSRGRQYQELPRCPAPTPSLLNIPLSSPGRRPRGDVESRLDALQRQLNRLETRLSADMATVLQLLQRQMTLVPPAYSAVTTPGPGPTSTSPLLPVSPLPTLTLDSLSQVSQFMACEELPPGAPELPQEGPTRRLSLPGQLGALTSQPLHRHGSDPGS
Regarding `NC(=O)COC(=O)CNC(=O)c1sc2ccccc2c1Cl`, the “hERG current change (%, negative = inhibition) at 10uM” value is on record as 5.68%.
For `O=C1CCC([N+](=O)[O-])C(c2ccc3c(c2)OCO3)N1` (centres unmarked) the value was 23.9%.
For `CCC(=O)N1CCc2cc(S(=O)(=O)N3CCc4ccccc4C3)ccc21` the value was 5.05%.
For `COCCNCCCOc1ccc(Br)cc1Cl.O=C(O)C(=O)O` the value was -31.8%; for `Cc1ccc(/C=N/N(Cc2ccccc2)c2ccccc2)o1`, 8.81%.
Regarding `O=C(O)c1cc(-c2cccs2)[nH]n1`, the “hERG current change (%, negative = inhibition) at 10uM” value stood at 15.5%.
For `CCCCn1c(N)c(N(C(=O)CSc2nnnn2-c2ccccc2)C2CCCC2)c(=O)[nH]c1=O` the value was 3.15%; for `COc1ccc(CCC(=O)O)cc1OC`, 10.6%.
Turning to `Cc1ccnc(NC2OC(=O)c3ccccc32)c1` (centres unmarked), the “hERG current change (%, negative = inhibition) at 10uM” value is reported as 21.8%.
Next, `CCc1ccccc1NC(=O)CN1CCN(CC(=O)NCc2ccc(Cl)cc2)CC1`: -46.6%; `COc1ccc(CN(C(=O)/C=C/c2ccco2)C2CCS(=O)(=O)C2)cc1OC` (centres unmarked): 4%.
Next, `CCOc1ccccc1OCCC(=O)OCC(=O)Nc1c(C)cc(C)cc1C`: -1.42%; `COc1cccc(O)c1CN1CCCC(C(=O)c2sccc2C)C1` (centres unmarked): -45.9%; `CC1(C)Cc2c(sc3nc4n(c(=O)c23)CCC4)CO1`: 11.2%.
For `O=C(O)c1cccc(NS(=O)(=O)c2cccc(C(=O)Nc3ccccc3[N+](=O)[O-])c2)c1` the value was -1.45%.
As to `CCCC(c1nnnn1CC1CCCO1)N1CCN(c2nc3ccccc3s2)CC1` (centres unmarked), the “hERG current change (%, negative = inhibition) at 10uM” value is -16.6%.
`CCC(C)(C)NC(=O)C(c1ccc(F)cc1)N(Cc1ccco1)C(=O)CCC(=O)Nc1ccccn1` (centres unmarked): the “hERG current change (%, negative = inhibition) at 10uM” value is recorded as -13.7%.
For `Cc1cc([N+](=O)[O-])c(C)cc1-c1ccc(/C=N/n2cnnc2)o1` the value was -4.65%; for `Cc1cc(S(=O)(=O)N2CCOCC2)ccc1F`, -0.7%; for `CC1=C(C(=O)Nc2ccccc2)C(c2ccc(C)o2)N2C(=O)CSC2=N1` (centres unmarked), 13.4%.
Next, `COc1ccc2c(/C=N/NS(=O)(=O)c3ccc(C)cc3)c[nH]c2c1`: 2.46%; `CC1(C)CC(=O)c2cnc(NC(=O)CSc3nc4ccccc4o3)nc2C1`: 12.5%.
Next, `Cc1csc2nc(CNS(=O)(=O)c3ccc(-c4ccccc4)cc3)cn12`: 2.36%; `COc1cc(/C=C(\C#N)c2nc3ccccc3s2)ccc1OCC(=O)Nc1ccccc1`: 6.42%.
Regarding `CCC(C(=O)Nc1cccnc1Cl)c1ccccc1` (centres unmarked), the “hERG current change (%, negative = inhibition) at 10uM” value was 2.22%.
Next, `CN(C(=O)C(C)(C)C)C1c2c(ccc3ccccc23)OCC1CO` (centres unmarked): 2.47%.
Next, `CCOC(=O)c1cc(C#N)c(SCC(=O)c2cc(C#N)c(SC)nc2C)nc1C`: -3.38%; `COc1cccc(CN(CC(=O)NCC2CCCO2)C(=O)CNS(=O)(=O)c2ccccc2)c1` (centres unmarked): 7.52%; `O=C1C=C(O)c2cccc(O)c2C1=O`: 22.3%.
Next, `Cc1ccc2nsnc2c1NC(=O)CCc1ccccc1`: -4.75%.
As for `Cc1nn2c(COc3ccc(NC(=O)c4ccccc4Cl)cc3)nnc2c2ccccc12`, the “hERG current change (%, negative = inhibition) at 10uM” value is reported as -1.12%.
For `Cc1ccc(NC(=O)c2cc(Cl)ccc2[N+](=O)[O-])cc1C` the value was -5.95%; for `CS(=O)(=O)c1ccc(S(=O)CC(=O)Oc2ccc(Cl)cc2)c([N+](=O)[O-])c1` (centres unmarked), 3.87%; for `Cl.O=C(NCCN1CCCC1)c1cccc(Cl)c1`, -51.6%.
Next, `COc1ccc(CCNC(=O)c2ccc3c(c2)NC(=O)CS3)cc1OC`: 0.116%; `CCCC[C@@H]1CNC(=O)C(=O)N1CCc1cc(C(F)(F)F)cc(C(F)(F)F)c1`: -38.8%; `O=C(/C=C/c1ccc2c(c1)OCO2)c1c(O)n(CCC2=CCCCC2)c(=O)[nH]c1=O`: 17.5%.
For `COC(=O)c1cc(OC)c(OC)cc1NC(=O)CSc1nnc(-c2cccnc2)n1C` the value was -7.74%.
For the compound `Cc1ccc(Cn2nnc3c(=O)[nH]c(C4CCN(S(=O)(=O)c5ccc(S(=O)(=O)NC6CC6)cc5)CC4)nc32)cc1`, the “hERG current change (%, negative = inhibition) at 10uM” value is recorded as -8.02%.
In the case of `CCc1ccccc1N(CC(=O)Nc1cccnc1)S(=O)(=O)c1ccccc1`, the “hERG current change (%, negative = inhibition) at 10uM” value is 18.6%.
Next, `O=C(CCNC(=O)Cn1cnc2ccccc2c1=O)NCC1COc2ccccc2O1` (centres unmarked): 6.81%.
Regarding `O=c1[nH]c(CSc2nc3ccccc3[nH]2)nc2c1cnn2-c1ccccc1`, the “hERG current change (%, negative = inhibition) at 10uM” value was -17.6%.
`COc1ccccc1/C=C/C=N/NC(=O)CC1C(=O)NN=C1C` (centres unmarked): the “hERG current change (%, negative = inhibition) at 10uM” value stood at 8.83%.
For `O=C(Cc1ccc(F)cc1)Nc1ccccc1N1CCCC1` the value was -4.99%.

The record behind these values is publication PMC4336329 (PLoS ONE, 2015).
